Test results taken from PubChem BioAssay AID686978 (National Center for Advancing Translational Sciences (NCATS), 2013).
Out of some 420,000 compounds screened, about 64,000 (15%) were called active. This list was built around the results that the source calls inconclusive (neither active nor inactive); the mix of calls is not that of the screen. Calls come from the whole dose curve; as a rule, active = well fitted inhibition curve with a large enough effect; inconclusive = small, poorly fitted or top-dose-only effect; inactive = flat fitted curve, though single readings scatter. No potency is given beside an inconclusive call; the fits are too rough.

Test: qHTS for Inhibitors of human tyrosyl-DNA phosphodiesterase 1 (TDP1): qHTS in cells in absence of CPT; note: nearly all actives have a fitted effect of over 55% in size
Details: DT40 Tdp1-/- hTDP1 cells, no CPT, ATP luminescence, 48 h; activity change, negative = growth inhibition: at 46.2 µM (top of the series)
Outline: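 Seeded 400 DT40-hTDP1 cells/well (vehicle DMSO, no 20 nM CPT); pinned compounds; ≥48 hr at 37 °C; CellTiter-Glo luminescence as viability measure.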
% is set by controls: 0 for no effect and ±100 for the full control effect; potency is the fitted concentration of half-maximal effect; tags give direction and shape of the fitted curve.

SMILES	activity change, negative = growth inhibition	Potency
O=C(NCc1ccc2c(c1)OCO2)C1CC(c2ccc(Cl)cc2)=NO1 (centres undefined)	inactive: -17.7%	
CC(C)(C)OC(=O)CNC(=O)c1nc[nH]c1C(=O)N1CCNCC1	inactive: 0.772%	
C/C(=N/n1cnnc1)c1cccnc1	inactive: 6.7%	
CCN(CC)S(=O)(=O)c1ccc(C(=O)NC2=C(C(=O)OC)SCC2)cc1		inconclusive [inhibitor, single point]
Cc1ccc(C(=O)O)cc1NC(=S)NC(=O)c1ccc(-c2ccccc2)cc1	inactive: -19.1%	
CCN(CC)c1ccc(C(=O)OCc2cc(=O)oc3cc(O)ccc23)cc1		active: 16.4 µM
CN(C)S(=O)(=O)c1cccc(NC(=O)CSc2nncn2-c2ccccc2)c1		inconclusive [inhibitor, single point]
COc1ccccc1CNC(=O)COC(=O)C12CC3CC(CC(O)(C3)C1)C2	inactive: -3.01%	
COc1cc(/C=C/C(=O)OCC(=O)N2CCCC2)ccc1OCC#N	inactive: 14.3%	
CCN(CC)CCNC(=O)C(=O)Nc1cc2c3c(c1)CCC(=O)N3CCC2	inactive: 10.5%	
O=C(C[n+]1ccccc1Br)c1ccc(O)c(O)c1	inactive: -6.17%	
Cc1ccc(C)c(N2N=C(C(=O)Nc3cccc(S(=O)(=O)N4CCCCC4)c3)CCC2=O)c1		inconclusive [inhibitor, partial curve]
NC(=O)c1ccc(NC(=O)COC(=O)c2ccccc2SCC(=O)N2CCCC2)cc1		inconclusive [inhibitor, single point]
S=c1[nH]nc(CSc2nc3ccccc3s2)n1C1CCCCC1		inconclusive [inhibitor, single point]
FC(F)(F)c1ccc(-c2noc(-c3ccccc3Br)n2)cc1		inconclusive [inhibitor, single point]
c1ccc(CCN2CN=C(Nc3nc4ccccc4s3)NC2)cc1		inconclusive [inhibitor, single point]
CCCc1nc(SCC(=O)Nc2nccs2)c2ccccc2n1		inconclusive [inhibitor, single point]
Cc1cccc(OCC(=O)Nc2ccc3oc(-c4ccccc4F)nc3c2)c1		inconclusive [inhibitor, single point]
CCOc1ccc(C(=O)Nc2ncn[nH]2)cc1	inactive: -2.32%	
O/N=C/c1cc2ccccc2n1Cc1ccccc1F		inconclusive [inhibitor, partial curve, poor fit]
COc1ccc(-c2nc3cc(C(C)C)ccc3o2)cc1NC(=O)c1ccc(C)c(Cl)c1		active: 18.4 µM
O=S(=O)(NCc1nc2cccnc2n1Cc1ccc(F)cc1)c1ccc(Cl)s1		inconclusive [inhibitor, single point]
COc1ccc(C(C)(C)C)cc1NC(=O)c1[nH]c(C)c(C(C)=O)c1C		active: 16.4 µM
O=c1c(-c2cccs2)nc2cnc(Oc3cccc(Cl)c3)nc2n1C1CC1	inactive: -17.1%	
COc1ccc(OCC(=O)N/N=C(\C)c2cc3ccccc3o2)cc1		inconclusive [inhibitor, single point]

SMILES	activity change, negative = growth inhibition	Potency
COc1ccc(-c2[nH]ncc2CNCCc2ncccc2C)cc1F	inactive: -25.3%	
CCN1CCN(C(=O)c2ccc(CSc3ccc(C)cc3)cc2)CC1		active: 13 µM
COc1cc2c(cc1OC)CN(C(=O)c1cc(S(=O)(=O)N3CCOCC3)ccc1C)CC2		inconclusive [inhibitor, single point]
CC(C(=O)N(C)Cc1ccccc1)N1CCN(C/C=C/c2ccccc2)CC1 (centres undefined)		inconclusive [inhibitor, single point]
CC(=O)Nc1ccc(CCNC(=O)c2ccc3ccccc3c2O)cc1		inconclusive [inhibitor, single point]
CC(=O)OCCNc1cc(SCc2ccco2)c2nonc2c1[N+](=O)[O-]		active: 18.4 µM
COc1ccc2nc(C)cc(SCC(=O)N/N=C/c3ccc(O)cc3O)c2c1		inconclusive [inhibitor, single point]
CC(C)N(Cc1nc(-c2ccccc2)no1)S(=O)(=O)c1ccccc1		inconclusive [inhibitor, single point]
Cc1ccc(CCNC(=O)c2ccc(CS(=O)(=O)Cc3cccc(C)c3)o2)cc1		active: 18.4 µM
CCCC(=O)N1CCCC1(C)C(=O)Nc1cc(OC)ccc1OC (centres undefined)	inactive: -0.835%	
O=C(C[n+]1cc(-c2ccc(Cl)cc2)n2c1CCCCC2)c1ccccc1		active: 6.51 µM
CCC/C=C/c1ccc(CN2C(C(C)C)C(=O)N(Cc3cn(CCC4OCCCO4)nn3)CCS2(=O)=O)cc1 (centres undefined)		inconclusive [inhibitor, single point]
Cc1nnc(SCC(=O)N2c3ccccc3CC2C)s1 (centres undefined)	inactive: -6.5%	
COC(=O)c1cc(C)sc1NC(=S)N1CCN(CCc2ccccc2)CC1	inactive: -29.9%	
Cc1ccc2oc(C(=O)N3CCN(C)C[C@@H]3C(C)C)c(C)c2c1		inconclusive [inhibitor, single point]
COc1cc(OC)c(OC)cc1CN1CCN(Cc2ccco2)CC1	inactive: 8.33%	
CCCCCC(=O)N(c1ccc(OCC)cc1)S(=O)(=O)c1ccc2c(c1)n(C)c(=O)n2C		active: 16.4 µM
O=S(=O)(c1ccc(Cl)cc1)N1CCN=C1SCc1cccnc1		inconclusive [inhibitor, single point]
COc1cccc(N(C(=O)Cn2nnc(-c3ccc(Cl)cc3)n2)C(C(=O)NCC2CCCO2)c2ccc(C)cc2)c1 (centres undefined)		active: 20.6 µM
COc1ccc2c(c1)C(SCC(=O)NCCc1ccc(Cl)cc1)CC(C)(C)O2 (centres undefined)		inconclusive [inhibitor, single point]
O=c1c2cn[nH]c2nc(SCc2ccccc2F)n1-c1ccc(Br)cc1		inconclusive [inhibitor, single point]
O=C(NCCCNC(=O)c1ccccc1)c1ccccc1	inactive: -15.5%	
Cc1ccc(S(=O)(=O)N2CCN(Cc3cccc(C)c3O)CC2)cc1		inconclusive [inhibitor, single point]
CN(C)c1nc(N2CCOCC2)nc(N(c2ccccc2)c2ccccc2)n1	inactive: 3.63%	
